The source of these data is the supplement of paper PMC11417369.

± gives the standard deviation of the averaged measurements. The list shows a part of the results.

This test concerns PfAP2-I AP2 domain 3 (GST-tagged). Put plainly: gcPBM binding intensity (ln(normalized median fluorescence intensity)); higher = stronger DNA binding. In short, it runs like this: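 The binding buffer was 1× PBS containing 1% milk, 0.2 mg/ml BSA, 0.5% salmon testes DNA and 0.03% Triton X-100. In it, GST-tagged P. falciparum DNA-binding domains expressed in E. coli were applied for 1 h to an Agilent 4 × 180k array of primer-extended double-stranded 36-bp intergenic genomic probes plus negative controls. Binding intensity, read with Alexa488 anti-GST antibody and a 488 nm scan, is the highest Masliner-normalised natural-log median intensity across replicate spots of either probe orientation.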
Consider “TAATAATAAACAACCACACACAAAAAAACAAAAAAA [CACACA_site3269]”, for which the “gcPBM binding intensity (ln)” value worked out at 7.8 ± 0.51.
For “ATTTAATTATGTAAGTGTACTTTGGAATATAATATT [XGTACX_site3186]”, the “gcPBM binding intensity (ln)” value was 7.83 ± 0.45.
With “GTAGCACATATATATTGTACATAATATATACATTAT [XGTACX_site6354]” the figure was 7.83 ± 0.44.
With “GTGTGGTGCTCGAGGAGTACAAACAATATGTAATTT [XGTACX_site4160]” the figure was 8.3 ± 0.35; with “TAAACAGACATATAAACACACATATAAACAGACATA [CACACA_site7214]”, 7.71 ± 0.69; with “TTTATTTTATAATTCACACATATATACCTATTTTAT [CACACA_site5709]”, 7.8 ± 0.42.
Under “TTTTCTTCCTATTATTGTACATATAGTATTCTTTCA [XGTACX_site4428]” stands 8.24 ± 0.81.
For “AATATAAGTAATTATACACACTTAATATTTATATAC [CACACA_site7334]”, the “gcPBM binding intensity (ln)” value turned out to be 7.7 ± 0.45.
With “TTATTTGATTACTTGCGTACTTATTTCATATTTTTT [XGTACX_site6648]” the figure was 8.04 ± 0.69.
Under GGGATATTTTAAAGGGTGCATATTATTAAAATAATG stands 10.7 ± 0.51; under “ATGAGAAAACATAAAAGTACAAAAAGAAAAAAAAAA [XGTACX_site6020]”, 7.98 ± 0.67.
Under “TTGGGTCAAACATAAACACACACAAAAAGAAAAAAT [CACACA_site8328]” stands 7.79 ± 0.53.
Turning to “TATTATATTAATGATGGTACAGTGTATATATATAAT [XGTACX_site1286]”, the “gcPBM binding intensity (ln)” value came out at 8.13 ± 0.59.
With “TCATAGTATGGACACACACACACACCCATATATATA [CACACA_site5033]” the figure was 8.35 ± 0.72; with “TTTCCATATTTTTAAAGTACATATTTCCGTTTCCAC [XGTACX_site7832]”, 7.83 ± 0.78.
Under “ACATATAATATAAAGTGTACAAGAAAATAAAAATAA [XGTACX_site1273]” stands 8.05 ± 0.59; under “ACATATTAAAATATATGTACATAAAATATGAAAAAA [XGTACX_site5869]”, 8.14 ± 0.4; under “ATATTTATTCCTTTTGGTACACAAAAAAAAAAAAAA [XGTACX_site8126]”, 8.09 ± 0.32.
Under “AATTATTTCTTTTACACATGCAATATTTAATTAAAA [TGCATGCA_site598]” stands 8.43 ± 0.42; under “TTTAAATGCTTTTTGTGGTGACTTATCCTTTCATAA [XGTACX_negctrl_site109]”, 7.73 ± 0.48; under “AATTTAAGCAGAACATATATATATATATATATAAAG [CACACA_negctrl_site769]”, 8.09 ± 0.62.
For the sequence “TATATGCTATAATATACACACATACCTATATTTATA [CACACA_site6383]”, the “gcPBM binding intensity (ln)” value was 7.84 ± 0.49.
As to “GTTAGGATAGATTAGACATGCACATAAATGCACTTC [TGCATGCA_site561]”, the “gcPBM binding intensity (ln)” value came to 11.1 ± 0.34.
Consider “TTTTTATAGAATTTAACACACATTTCATATAAAAAA [CACACA_site7453]”, for which the “gcPBM binding intensity (ln)” value amounted to 7.86 ± 0.47.
Under “TTAAAATTCAAAAAAAAAAATCAGAATATCAGAAAA [CACACA_negctrl_site1361]” stands 7.22 ± 0.74; under “TATATAACATAATATACACACATTATATGCGTAATT [CACACA_site6098]”, 7.75 ± 0.36.
With “GATATATAAATAAATACACACATAAAATAGAAATAT [CACACA_site6881]” the figure was 7.89 ± 0.68.
With “ATTAAAGAAATATATACACACATTATGGGGGAATAA [CACACA_site178]” the figure was 8.63 ± 0.26.
Regarding “TGCTACATAATATGTACACACATATACATATTTATA [CACACA_site6545]”, the “gcPBM binding intensity (ln)” value turned out to be 7.95 ± 0.29.
Consider “TATCACATTTATGAGAGTACATAATTAATTCATGAT [XGTACX_site7850]”, for which the “gcPBM binding intensity (ln)” value was found to be 7.55 ± 0.25.
In the case of “GTATGATTAAATAAAGGTACACTTATATTTATTTAT [XGTACX_site6966]”, the “gcPBM binding intensity (ln)” value turned out to be 7.87 ± 0.3.
With “CATAATACAAATGTGATACCTGAAAATGACTTATTA [CACACA_negctrl_site994]” the figure was 7.38 ± 0.61; with “TTCTTTTTTGTAATAACACACACACTAACAGAAAAA [CACACA_site8646]”, 8.45 ± 0.3; with “GAATTAATTTTAAAACGTACATGGGTGTATTTACAC [XGTACX_site5939]”, 8.41 ± 0.26.
“ATTGATACATCCAATACACACTACAGATAATGATGT [CACACA_site5098]”: the “gcPBM binding intensity (ln)” value worked out at 7.71 ± 0.61.
With “GTAATAAATTAAATATGTACATATTAAAATTAAGGA [XGTACX_site2290]” the figure was 7.88 ± 0.34; with “CAATTTTTATGTGTGTGTACTCATTTGTTTTATAAA [XGTACX_site406]”, 8.12 ± 0.38; with “TTGGAATAATATAAATAAATAAATATATATATATAT [CACACA_negctrl_site900]”, 9.05 ± 0.28.
With “ATACAACAGATATATACACACATATAACAATAATAA [CACACA_site7560]” the figure was 8.04 ± 0.42; with “TTTCTTTTTGTTCGTGTACACACATGAAATTTATAA [CACACA_site8466]”, 8.98 ± 0.57; with “AAAAAAAAAAAATGTGCACACGCGTACACCCAAAAA [CACACA_site8614]”, 9.12 ± 0.4.
As to “AATTATACATATATTTAACACACATTTTATAAAGTG [CACACA_site8362]”, the “gcPBM binding intensity (ln)” value amounted to 7.85 ± 0.44.
Under “ATATATATATATAATTGTACATGTGTGTATAATTTG [XGTACX_site2417]” stands 9.325 ± 0.064.
With “TTTTATTTTATATAACAACAAAATGGAAATATATAT [GTGCAC_negctrl_site71]” the figure was 7.89 ± 0.59.
